# From PubChem BioAssay AID686978 (National Center for Advancing Translational Sciences (NCATS), 2013)
# About 64,000 (15%) of roughly 420,000 compounds were called active. The inconclusive results got no clear call from the source; some entries with a clear call stand among them for comparison. Calls follow the shape of the dose curve; as a rule, active = well fitted inhibition curve with a large enough effect; inconclusive = small, poorly fitted or top-dose-only effect; inactive = flat fitted curve, though single readings scatter. No potency is given beside an inconclusive call; the fits are too rough.
# Experiment: qHTS for Inhibitors of human tyrosyl-DNA phosphodiesterase 1 (TDP1): qHTS in cells in absence of CPT; also: nearly all actives have a fitted effect of over 55% in size
# Conditions: DT40 Tdp1-/- hTDP1 cells, no CPT, ATP luminescence, 48 h; activity change, negative = growth inhibition: at 46.2 µM (top of the series) unless noted
# Method in brief: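 Growth of hTDP1-complemented DT40 Tdp1-knockout cells is measured by ATP luminescence after at least 48 hr compound exposure at 37 °C, with DMSO substituting for the 20 nM CPT used in the parallel screen.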
# % is scaled to controls: 0 for no effect and ±100 for the full control effect; potency is read from the fitted curve at half-maximal effect; tags tell the direction and shape of the fitted curve.
SMILES,Potency,"activity change, negative = growth inhibition"
Cc1ccccc1C(=O)NC(=S)Nc1sc2c(c1C#N)CCCC2,"inconclusive [inhibitor, partial curve, poor fit]",
Nn1c(SCC(=O)NC2CCCCCC2)nnc1C(F)(F)F,,inactive: -14%
Cc1cc2ccc(Cl)nc2nc1C,,inactive: 0.254%
O=c1[nH]c(Cc2ccc(Cl)cc2)nc2ccccc12,,inactive: -8.38%
O=C(Oc1ccc(-n2cnnn2)cc1)c1ccccc1,"inconclusive [inhibitor, full curve]",
Cc1csc(N(C(=O)c2cccc(S(=O)(=O)N3CCCC3)c2)c2ccccc2)n1,active: 18.4 µM,
O=C(Cc1ccccc1)N1CCN=C1SCc1ccc([N+](=O)[O-])cc1,"inconclusive [inhibitor, single point]",
Clc1cccc(Cl)c1COc1ccccc1CNn1cnnc1,"inconclusive [inhibitor, partial curve]",
O=C(NN=C1CCCC1)c1ccc([N+](=O)[O-])cc1,,inactive: -15.3%
CCN(CC)c1ccc(NC(=O)CN2C(=O)c3cccnc3Oc3ccc(Cl)cc32)c(C)c1,active: 13 µM,
c1ccc(C2=NN(c3ccccc3)CC2)cc1,,inactive: 3.7%
CCOC(=O)c1c(NC(=O)CSc2nnc(-c3ccccc3C)n2C)sc(C(C)=O)c1C,active: 11.6 µM,
CC(Nc1oc(-c2ccc(COc3ccc(Cl)cc3)o2)nc1C#N)c1ccccc1 (stereo unspecified),"inconclusive [inhibitor, single point]",
CCC1CCc2sc(C(=O)NCC(c3ccc(OC)cc3)N3CCOCC3)cc2C1 (stereo unspecified),active: 13 µM,
Cc1ccc(S(=O)(=O)Nc2ccccc2C(=O)OC(C)C(=O)Nc2ccc3ccccc3c2)cc1[N+](=O)[O-] (stereo unspecified),,inconclusive: -32.1% [inhibitor]
O=C(Nc1ccccc1)Nc1ccc(Br)cc1F,active: 20.6 µM,
COc1cccc(Cn2c(NCc3ccco3)nc3c2c(=O)n(C)c(=O)n3C)c1,active: 1.46 µM,
CC(=O)Nc1ccc(C=Cc2ccc([N+](=O)[O-])cc2)cc1,"inconclusive [inhibitor, partial curve]",
O=C1Nc2ccccc2-c2nnnn2C1N1CCCCC1 (stereo unspecified),,inactive: -11.5%
CCc1cccc(NS(=O)(=O)c2cc(-c3cnc(C)o3)ccc2OC)c1,"inconclusive [inhibitor, single point]",
O=C(NC1CCC(O)CC1)c1ccc(-c2ccc(Cl)cc2)o1 (stereo unspecified),"inconclusive [inhibitor, single point]",

SMILES,Potency,"activity change, negative = growth inhibition"
Nc1c([N+](=O)[O-])cc2c3c(cccc13)CC2,,inactive: -77.8%
Cn1nc(C(F)(F)F)c(-c2ccc(Br)cc2)c1NC(=O)c1cccnc1,active: 13 µM,
CCOn1c(=O)c(-c2ccc(F)cc2)[n+]([O-])c2ccccc21,,inactive: 19.4%
CCCOc1ccc(C2NC(=S)NC(C)=C2C(=O)c2ccccc2)cc1OC (stereo unspecified),"inconclusive [inhibitor, single point]",
O=C(O)c1ccc(-n2nncc2-c2ccco2)cc1,,inactive: -8.48%
Cc1cccc(/C=C2/S/C(=N/N=C3\CC4CCC3(C)C4(C)C)NC2=O)c1 (stereo unspecified),active: 20.6 µM,
COc1ccc(C(=O)Nc2nc3n(n2)C(c2ccc(F)cc2)C=C(c2ccc(Cl)cc2)N3)cc1 (stereo unspecified),active: 7.31 µM,
CCn1c(=O)c2sccc2n2c(CCCC(=O)Nc3ccc(OC)c(OC)c3)nnc12,"inconclusive [inhibitor, single point]",
COc1ccc(C(=O)Nc2ccc3ccccc3c2)c(OC)c1,"inconclusive [inhibitor, single point]",
CCOc1ccc(-c2ccc(SCC(=O)Nc3nnc(CC)s3)nn2)cc1,,inactive: 4.24%
Cc1cnc(C(=O)OCC(=O)N(Cc2ccccc2)C(C)C)cn1,,inactive: -10.9%
COc1ccc(C(=O)Nn2c(C)nc3ccccc3c2=O)cc1Br,,inactive: -28.4%
COc1ccc(C(=O)Nc2nc(CC(=O)NCc3c(F)cccc3F)cs2)cc1,"inconclusive [inhibitor, single point]",
CC(C)(C)c1ccc(-n2ncc3c2CCCC3NC(=O)c2cnccn2)cc1 (stereo unspecified),active: 9.2 µM,
N#CCCn1cc(C=C(C#N)C#N)c(-c2ccc(-c3ccccc3)cc2)n1,"inconclusive [inhibitor, single point]",
C=CCSc1nc(N(CC)CC)c2sccc2n1,"inconclusive [inhibitor, single point]",
CN(Cc1ccccc1)c1nc2c(c(=O)[nH]c(=O)n2C)n1Cc1ccccc1Cl,"inconclusive [inhibitor, single point]",
CCc1cc2ccccc2nc1SCC(=O)N1CCN(C(=O)c2ccco2)CC1,"inconclusive [inhibitor, partial curve]",
O=C(N/N=C/c1cccs1)c1ccc2nc[nH]c2c1,,inactive: -4.69%
O=C(CC1N=C2c3ccccc3N=C(SCC(=O)Nc3ccc(F)cc3)N2C1=O)NCc1ccc2c(c1)OCO2 (stereo unspecified),,inactive: -20.4%
O=C(CN1CCN(c2cccc(Cl)c2)CC1)NC1CCCc2ccccc21 (stereo unspecified),"inconclusive [inhibitor, partial curve]",

SMILES,Potency,"activity change, negative = growth inhibition"
COc1cccc(-c2n[nH]c3c2C(c2ccccn2)N(C)C3=O)c1 (stereo unspecified),,inactive: -2.78%
COc1ccc(NC(=O)CCN2CCN(c3ccc(F)cc3)CC2)cc1,"inconclusive [inhibitor, single point]",
Cc1cccc(NC(=O)Cn2cc(S(=O)(=O)Cc3ccccc3Cl)c3ccccc32)c1,active: 20.6 µM,
N/C(Cc1ccc(Cl)cc1Cl)=N\OC(=O)Cc1cccs1,,inactive: -5.33%
CCCn1c2ccccc2c2nnc(SC(CC)C(=O)Nc3cc(C)on3)nc21 (stereo unspecified),active: 29.1 µM,
COc1ccc(-n2cc(-c3ccc4c(c3)OCO4)n(CC(=O)Nc3cccc(C)c3)c2=O)cc1,"inconclusive [inhibitor, single point]",
O=C(CCNS(=O)(=O)c1ccc(Cl)cc1)N1CCN(c2ccccn2)CC1,,inconclusive: -30.7% [inhibitor]
CCN(CC)c1ncnc2sc3c(c12)CCC3,"inconclusive [inhibitor, single point]",
CCCCC1CCC(CCCC(C)CCC(=O)O)CC1 (stereo unspecified),,inactive: -2.94%
O=C(/C=C\c1ccccc1)NCC(=O)N/N=C/c1ccc(O)cc1O,active: 8.2 µM,
Cc1cccc(NC(=S)N/N=C/c2cccc(O)c2)c1C,active: 2.59 µM,
Cc1cccc(C(=O)N2CCCC(N3CCN(c4ccc(F)cc4)CC3)C2)n1 (stereo unspecified),,inactive: -21.2%
C=CCNC(=O)c1cc2nc(C3CC3)cc(C(F)F)n2n1,,inactive: 16.9%
Cc1ccc2cc(-c3noc(C(C)(C)C)n3)c(=O)[nH]c2c1,,inactive: -21.2%
Cc1ccccc1Cn1c(C(=O)OC(C)C)cc2c1ccn2C,"inconclusive [inhibitor, single point]",
O=C(NCCN1CCOCC1)c1cc2sccc2n1Cc1ccc(Cl)cc1,"inconclusive [inhibitor, single point]",
CCOC(=O)C1=CCN(S(=O)(=O)c2ccc(C)cc2)C1c1cccc(C)c1 (stereo unspecified),active: 18.4 µM,
CCN(CC)S(=O)(=O)c1cccc(-c2nnc(SC(C)C(N)=O)n2CCc2ccccc2)c1 (stereo unspecified),"inconclusive [inhibitor, single point]",
CCOc1ccccc1NC(=O)NCc1ccc(F)cc1,,inactive: -27.9%
Cc1ccccc1Cn1c(SCc2ccc(C(=O)NCCc3ccccc3)cc2)nc2ccncc21,active: 20.6 µM,
Cc1c2cnn(CC(=O)NCCN3CCOCC3)c(=O)c2c(C)n1Cc1ccccc1,,inactive: -7.52%

SMILES,Potency,"activity change, negative = growth inhibition"
Cc1c(F)cccc1NC(=O)CCC(=O)O,,inactive: -11%
Cc1onc(-c2ccccc2Cl)c1C(=O)Nc1nnc(-c2ccc(Cl)cc2Cl)s1,"inconclusive [inhibitor, single point]",
N#Cc1cccc(S(=O)(=O)N2CCN(c3ccnc4cc(Cl)ccc34)CC2)c1,active: 11.6 µM,
CSc1ncc(Cl)c(C(=O)N(Cc2ccc(C(C)C)cc2)C2CCS(=O)(=O)C2)n1 (stereo unspecified),"inconclusive [inhibitor, single point]",
S=C1SCN(CCN2CCOCC2)CN1Cc1ccccc1,active: 3.16 µM,
O=C(CC(c1ccccc1)c1ccccc1)NCC1CCCO1 (stereo unspecified),"inconclusive [inhibitor, single point]",
S=C(NCc1ccncc1)Nc1cccc(Cl)c1,,inactive: -15.3%
CC1(C)CC(=O)c2c(O)cc(OCc3ccc([N+](=O)[O-])cc3)cc2O1,"inconclusive [inhibitor, single point]",
CCOc1ccccc1NC(=O)c1ccc2c(c1)CCCN2S(C)(=O)=O,,inactive: -15.3%
O=C(Nc1cccc(F)c1)N1CC2(CCN(C(=O)c3ccco3)CC2)C1,,inactive: -7.29%
CCCCCCN1C[C@H](O)[C@@H](n2cc(-c3ccc(F)cc3)nn2)C[C@@H]1c1ccccc1,active: 20.6 µM,
O=C(CN1CCCCC1)Nc1cccc(Oc2ccccc2)c1,"inconclusive [inhibitor, single point]",
Cc1cccn2c(=O)c(/C=C(\C#N)C(=O)NC3CCS(=O)(=O)C3)c(Oc3ccc(F)cc3)nc12 (stereo unspecified),active: 20.6 µM,
O=C(CCc1nnc(CCCCc2ccccc2)o1)NCCN1CCCCC1=O,,inactive: -18.4%
COc1cccc(C(=O)N2CCC(c3nc4ccccc4s3)CC2)c1,"inconclusive [inhibitor, partial curve]",
O=C(CSc1ccccc1F)NCC(c1ccco1)N1CCCCC1 (stereo unspecified),"inconclusive [inhibitor, single point]",
Cc1cccc(C)c1NC(=O)CN(C)C(=O)COc1cccc2c1OC(C)(C)C2,,inactive: -21.1%
O=C(Nc1ccc2nn(-c3ccc(F)cc3)nc2c1)c1cccc2c(Cl)cccc12,active: 20.6 µM,
